{"source": "the antibiotic and cytotoxicity screens of Wong et al. (2023)", "note": "Some of the results follow.", "data": [{"tested_on": "HSkMC (human skeletal muscle cells)", "assay": "cytotoxicity call (relative viability < 0.9)", "conditions": "10 µM", "values": [{"compound": "c1coc(CNC[C@H]2Cn3nncc3CO2)c1", "cytotoxicity call": "inactive"}, {"compound": "C[C@H](CO)N1C[C@H](C)[C@@H](CN(C)Cc2ccc3c(c2)OCO3)OCCCC[C@H](C)Oc2ccc(NC(=O)Nc3ccc(F)cc3)cc2C1=O", "cytotoxicity call": "inactive"}, {"compound": "Cc1ccc(S(=O)(=O)N(C)C[C@H]2OCCCC[C@H](C)Oc3ccc(NC(=O)Cc4ccccc4)cc3C(=O)N([C@@H](C)CO)C[C@@H]2C)cc1", "cytotoxicity call": "inactive"}, {"compound": "C[C@@H]1CN([C@H](C)CO)C(=O)Cc2cc(NC(=O)Cn3cnnn3)ccc2O[C@@H]1CN(C)CC1CCCCC1", "cytotoxicity call": "inactive"}, {"compound": "CCCN(C)C[C@@H]1OCCCC[C@@H](C)Oc2ccc(NS(=O)(=O)c3cn(C)cn3)cc2C(=O)N([C@@H](C)CO)C[C@@H]1C", "cytotoxicity call": "inactive"}, {"compound": "C[C@H](CO)N1C[C@H](C)[C@H](CN(C)C(=O)NC2CCCCC2)OCCCC[C@H](C)Oc2ccc(NC(=O)Cc3ccccc3)cc2C1=O", "cytotoxicity call": "inactive"}, {"compound": "COc1cccc(-c2ccc3c(c2)O[C@H](CN(C)C(=O)C2CCC2)[C@@H](C)CN([C@H](C)CO)S3(=O)=O)c1", "cytotoxicity call": "inactive"}, {"compound": "C[C@@H]1CCCCO[C@@H](CN(C)Cc2ccccc2)[C@@H](C)CN([C@@H](C)CO)C(=O)c2cc(NC(=O)Nc3ccccc3)ccc2O1", "cytotoxicity call": "inactive"}, {"compound": "N[C@@H]1[C@@H](O)[C@H](O)[C@@H](CO)O[C@H]1O", "cytotoxicity call": "inactive"}, {"compound": "CS(=O)(=O)N1C[C@@H]2OCCN(c3cnccn3)[C@H]2C1", "cytotoxicity call": "inactive"}, {"compound": "COc1ccc(C#Cc2cnc3c(c2)C(=O)N([C@@H](C)CO)C[C@@H](C)[C@H](CN(C)CC2CCOCC2)O3)cc1", "cytotoxicity call": "inactive"}, {"compound": "Cc1nc2c(C)cccc2c2c1COC2", "cytotoxicity call": "inactive"}, {"compound": "C[C@H](CO)N1C[C@H](C)[C@H](CN(C)Cc2ccccc2)Oc2ccc(NS(=O)(=O)c3cn(C)cn3)cc2CC1=O", "cytotoxicity call": "inactive"}, {"compound": "C[C@@H]1CN([C@H](C)CO)C(=O)c2ccccc2-c2ccccc2CO[C@H]1CN(C)S(=O)(=O)c1ccc(C(F)(F)F)cc1", "cytotoxicity call": "inactive"}, {"compound": "C[C@@H]1CN([C@H](C)CO)C(=O)c2cc(NC(=O)Nc3ccccc3)ccc2O[C@@H]1CN(C)C(=O)Nc1cccc2ccccc12", "cytotoxicity call": "active"}, {"compound": "Cc1noc(C)c1NC(=O)Nc1ccc2c(c1)C(=O)N([C@H](C)CO)C[C@@H](C)[C@H](CN(C)S(=O)(=O)c1cccs1)OCCCC[C@@H](C)O2", "cytotoxicity call": "inactive"}, {"compound": "COc1ccc(S(=O)(=O)N(C)C[C@@H]2Oc3cc(Br)ccc3S(=O)(=O)N([C@H](C)CO)C[C@@H]2C)cc1", "cytotoxicity call": "inactive"}, {"compound": "C[C@@H]1CN([C@H](C)CO)C(=O)c2cc(NC(=O)Nc3ccc4c(c3)OCO4)ccc2O[C@@H](C)CCCCO[C@@H]1CN(C)S(=O)(=O)c1cccs1", "cytotoxicity call": "inactive"}, {"compound": "Cc1noc(C)c1NC(=O)N(C)C[C@H]1OCCCC[C@@H](C)Oc2ccc(NC(=O)Nc3ccccc3)cc2C(=O)N([C@H](C)CO)C[C@@H]1C", "cytotoxicity call": "inactive"}, {"compound": "CO[C@@H]1CN(C)C(=O)c2cc(NS(=O)(=O)CC(F)(F)F)ccc2OC[C@H](C)N(Cc2ccccn2)C[C@@H]1C", "cytotoxicity call": "inactive"}, {"compound": "O=C(C[C@H]1C=C[C@H](NC(=O)CN2CCOCC2)[C@@H](CO)O1)NC1CCCCC1", "cytotoxicity call": "inactive"}, {"compound": "CC(=O)Oc1ccc(O)cc1", "cytotoxicity call": "inactive"}, {"compound": "NNC(=O)Cn1nnc(N2CCCC2)n1", "cytotoxicity call": "inactive"}, {"compound": "COCc1cn(CC[C@@H]2CC[C@@H](NC(=O)CCN3CCCCC3)[C@H](CO)O2)nn1", "cytotoxicity call": "inactive"}, {"compound": "COc1ccc(S(=O)(=O)Nc2cccc3c2O[C@H](CN(C)C(=O)Nc2c(C)noc2C)[C@H](C)CN([C@@H](C)CO)C3=O)cc1", "cytotoxicity call": "inactive"}, {"compound": "CC[C@@H](C)[C@@H](NC)C(=O)O", "cytotoxicity call": "inactive"}, {"compound": "Cc1cc(C)c(N(Cc2ccccc2)S(=O)(=O)c2ccc(OCCNC(=O)c3cc4ccccc4o3)cc2)c(C(=O)NO)c1", "cytotoxicity call": "active"}, {"compound": "C[C@H]1CN([C@@H](C)CO)C(=O)Cc2cc(NC(=O)CCCN(C)C)ccc2O[C@@H]1CN(C)S(C)(=O)=O", "cytotoxicity call": "inactive"}, {"compound": "C[C@H](NC(=O)C[C@@H]1CC[C@H](NC(=O)CN2CCOCC2)[C@H](CO)O1)c1ccccc1", "cytotoxicity call": "inactive"}, {"compound": "C[C@@H]1CN([C@H](C)CO)C(=O)Cc2cc(NC(=O)c3ccncc3)ccc2O[C@H]1CN(C)S(C)(=O)=O", "cytotoxicity call": "inactive"}, {"compound": "O=C(C[C@@H]1CC[C@H]2[C@@H](COC[C@H](O)CN2S(=O)(=O)c2ccccc2F)O1)NCc1ccccc1F", "cytotoxicity call": "inactive"}, {"compound": "C[C@H]1CN([C@@H](C)CO)S(=O)(=O)c2ccc(C#CC(C)(C)O)cc2O[C@@H]1CN(C)Cc1ccncc1", "cytotoxicity call": "inactive"}, {"compound": "CC(C)NC(=O)N(C)C[C@@H]1Oc2ccc(NS(=O)(=O)c3cn(C)cn3)cc2CC(=O)N([C@H](C)CO)C[C@@H]1C", "cytotoxicity call": "inactive"}, {"compound": "CC(C)NC(=O)Nc1ccc2c(c1)C(=O)N([C@H](C)CO)C[C@@H](C)[C@@H](CN(C)S(=O)(=O)c1cccs1)O2", "cytotoxicity call": "inactive"}, {"compound": "C[C@@H]1CCCCO[C@@H](CN(C)C(=O)C2CCCCC2)[C@H](C)CN([C@@H](C)CO)C(=O)c2cc(NS(=O)(=O)c3ccccc3)ccc2O1", "cytotoxicity call": "inactive"}, {"compound": "O=C(C[C@@H]1CC[C@@H]2[C@H](COC[C@H](O)CN2C(=O)c2ccncc2)O1)NCc1ccc(-c2ccccc2)cc1", "cytotoxicity call": "inactive"}, {"compound": "CC(C)NC(=O)N(C)C[C@@H]1Oc2ccc(NS(=O)(=O)c3cn(C)cn3)cc2C(=O)N([C@@H](C)CO)C[C@@H]1C", "cytotoxicity call": "inactive"}, {"compound": "CN1CC(=O)Nc2ccc([N+](=O)[O-])cc2C1=O", "cytotoxicity call": "inactive"}, {"compound": "CC12CCC(O)CC1=CCC1C2CCC2(C)C(c3cccnc3)=CCC12", "note": "(stereo not given)", "cytotoxicity call": "inactive"}, {"compound": "C[C@@H]1CCCCO[C@@H](CN(C)C(=O)Nc2ccc3c(c2)OCO3)[C@@H](C)CN([C@H](C)CO)C(=O)c2cc(NS(=O)(=O)c3cccs3)ccc2O1", "cytotoxicity call": "inactive"}]}]}
